Assay results: PubChem BioAssay AID624417 (National Center for Advancing Translational Sciences (NCATS), 2012)
In all, about 410,000 compounds went through this assay and about 6,400 (1.6%) were called active. The shares of active, inactive and inconclusive entries below differ from those in the screen. The call rests on the fitted dose curve; in most records, active means well fitted inhibition curve with a large enough effect; inconclusive means small, poorly fitted or top-dose-only effect; inactive means no such curve, though single readings can be large or run the other way. A potency beside an inconclusive call is a rough fit, not a confirmed value.

target: Glucagon-like peptide 1 receptor (Homo sapiens) (UniProt P43220); assay: qHTS of GLP-1 Receptor Inverse Agonists (Inhibition Mode); conditions: HEK293 GLP-1R CRE-luciferase, luminescence, 24 h, GLP-1R form is constitutively active; activity change, negative = inhibition: at 38.3 µM (top of the series) unless noted; further: nearly all actives have a fitted effect of over 55% in size
Sequence of UniProt P43220 (P43220 whole entry, looked up): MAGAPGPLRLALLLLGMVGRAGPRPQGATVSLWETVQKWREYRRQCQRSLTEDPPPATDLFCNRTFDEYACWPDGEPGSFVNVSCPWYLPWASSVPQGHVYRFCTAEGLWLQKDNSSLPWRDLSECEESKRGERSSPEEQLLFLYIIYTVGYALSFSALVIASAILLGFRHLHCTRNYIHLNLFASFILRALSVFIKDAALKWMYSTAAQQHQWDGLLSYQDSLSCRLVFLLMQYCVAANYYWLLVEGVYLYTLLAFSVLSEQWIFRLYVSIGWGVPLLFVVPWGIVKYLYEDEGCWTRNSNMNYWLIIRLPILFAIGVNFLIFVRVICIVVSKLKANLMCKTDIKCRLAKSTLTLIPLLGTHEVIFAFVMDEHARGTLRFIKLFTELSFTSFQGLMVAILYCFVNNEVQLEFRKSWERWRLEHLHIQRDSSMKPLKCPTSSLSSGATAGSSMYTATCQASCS
Procedure, shortened: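 qHTS in 1536-well format: reporter HEK293 cells expressing constitutive GLP-1R activity in DMEM + 10% Nu serum, 24 hr with compounds at 37 deg C, luminescence read after 12 min with detection reagent.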
On the % scale 0 is the no-effect control and ±100 the full control effect; potency means the concentration at half of the fitted maximal effect; tags describe the fitted curve by direction and shape.

Potency, inconclusive:
Cc1nc2c(=O)n(C)c(=O)n(C)c2nc1Cl 28.2 µM [inhibitor, single point]
CCOC(=O)c1c(NC(=O)c2ccc(S(=O)(=O)N3CCCC(C)C3)cc2)sc2c1CC(C)(C)NC2(C)C (centres undefined) 12.6 µM [inhibitor, partial curve, poor fit]
Cc1cc(C)n(-c2nc(NC(C)C)nc(NC(C)C)n2)n1 1.26 µM [inhibitor, partial curve, poor fit]
Cc1ccc(S(=O)(=O)N2CCN(Cc3ccccc3)CC2)c(C)c1N(C)S(=O)(=O)c1ccccc1 28.2 µM [inhibitor, single point]
COc1ccc(OCC(=O)Nc2ccc(OC)c(S(=O)(=O)N3CCCCC3)c2)cc1 5.62 µM [inhibitor, partial curve, poor fit]
Fc1ccccc1-c1csc(=Nc2cccnc2)n1CC1CCCO1 (centres undefined) 11.2 µM [inhibitor, partial curve, poor fit]
CC(C)(C)OC(=O)N1CCNc2ccccc2C1 28.2 µM [inhibitor, single point]
COc1ccc(-c2[nH]c(-c3ccc(C)cc3)nc2SCC(=O)Nc2nccs2)cc1 14.1 µM [inhibitor, partial curve, poor fit]
CN(C)C(CNc1ncnc2sc3c(c12)CCCCC3)c1ccco1 (centres undefined) 11.2 µM [inhibitor, single point]
CCCOc1ccc(N2C(=O)CC(N(CCc3ccc(OC)cc3)C(=O)c3cccc(F)c3)C2=O)cc1 (centres undefined) 11.2 µM [inhibitor, partial curve, poor fit]
NC(=O)c1ccc(NC(=O)C#Cc2ccccc2)cc1 10 µM [inhibitor, single point]
O=S(=O)(CC(CN1CCCCC1)N1CCCCC1)c1ccc2ccccc2c1 (centres undefined) 8.91 µM [inhibitor, partial curve, poor fit]
COc1ccc(C(CC(=O)O)NS(=O)(=O)c2ccc(C)cc2)cc1 (centres undefined) 28.2 µM [inhibitor, single point]
COc1ccc(/C=C/C(=O)c2ccccc2O)cc1CN1CCOCC1 10 µM [inhibitor, partial curve, poor fit]
COc1c(C)cc(C(=O)C2CCCN(C(=O)c3ccc4[nH]ccc4c3)C2)cc1C (centres undefined) 28.2 µM [inhibitor, single point]
O=C(Nc1cccc(F)c1)c1ccc(-c2cccnc2)c2ccoc12 31.6 µM [inhibitor, partial curve, poor fit]
CCc1cccc(CC)c1N1C(=O)C2=C(SCCCS2)C1=O 10 µM [inhibitor, partial curve, poor fit]
CCOC(=O)/C(=C/c1ccc(OC(F)F)cc1)C1=Nn2c(nnc2-c2ccc(Cl)cc2)SC1 7.94 µM [inhibitor, partial curve, poor fit]
Cc1nnc(SCc2ccccc2)nc1-c1ccccc1 20 µM [inhibitor, single point]
CC/C(=C(\c1ccccc1)c1ccc(OCCN(C)C)cc1)c1ccccc1 10 µM [inhibitor, partial curve, poor fit]
COc1ccccc1NC(=O)CSc1nnc(COc2ccc(Cl)cc2)n1Cc1ccco1 28.2 µM [inhibitor, single point]
Cc1ccc(OC(=O)c2cccc(S(=O)(=O)N3CCN(C)CC3)c2)c(Br)c1 11.2 µM [inhibitor, partial curve, poor fit]
Cc1cccc(-c2ccc(O)cc2CN2CCN(c3ncc(Cc4ccccc4)cn3)CC2)c1 28.2 µM [inhibitor, single point]
O=C(NCCCN1CCN(c2cccc(Cl)c2)CC1)C1(S(=O)(=O)c2ccc(Cl)cc2)CC1 6.31 µM [inhibitor, partial curve, poor fit]
CCc1ccc(OCc2nnc(SCC(=O)N3CCN(c4ccccc4)CC3)o2)cc1 2.24 µM [inhibitor, partial curve, poor fit]
O=C(CN1C(=O)NC(Cc2c[nH]c3ccccc23)C1=O)Nc1ccccc1Br (centres undefined) 14.1 µM [inhibitor, single point]
CCN(CC)c1nc(Nc2ccc(Cl)cc2)nc(OCC#N)n1 2 µM [inhibitor, full curve, poor fit]
Cc1ccccc1S(=O)(=O)NC(=O)C1(C)CCN1C(=O)CCc1ccc(Cl)cc1Cl (centres undefined) 28.2 µM [inhibitor, single point]
COc1ccccc1NC(=O)CSc1nnc(Cn2nnc(-c3ccccc3)n2)n1-c1ccccc1 28.2 µM [inhibitor, single point]
CC1CCN(C(c2ccc(F)cc2)c2sc3nc(-c4ccco4)nn3c2O)CC1 (centres undefined) 11.2 µM [inhibitor, partial curve, poor fit]
COc1ccc(CC(=O)N2CCc3c([nH]c4ccccc34)C2c2ccc(SC)cc2)cc1 (centres undefined) 12.6 µM [inhibitor, partial curve, poor fit]
Cc1ccc2c(c1)[C@H]1[C@H](CO2)[C@H](c2ccccc2)[C@]2(C)C(=O)Nc3cc(F)ccc3C(=O)N12 20 µM [inhibitor, single point]
CC(=O)N1CCCc2cc(S(=O)(=O)Nc3ccc(Cl)cc3F)ccc21 6.31 µM [inhibitor, partial curve, poor fit]
CN(C)c1ccc(/C=C(\Cl)c2nc3ccccc3s2)cc1 31.6 µM [inhibitor, partial curve, poor fit]
Cc1cc(Cl)cc(Br)c1OCCCCn1cncn1 11.2 µM [inhibitor, single point]
Cc1cc2oc(=O)cc(CNc3ccccc3F)c2cc1O 7.94 µM [inhibitor, partial curve, poor fit]
O=C(C[n+]1ccccc1)N/N=C/c1cc(Br)cc(Br)c1O 28.2 µM [inhibitor, single point]
CC(=O)Nc1coc2ccc(Br)cc12 28.2 µM [inhibitor, single point]
CCN(CC(=O)NCc1ccc(Cl)cc1)C(=O)CSc1cc(C)ccc1C 22.4 µM [inhibitor, partial curve, poor fit]
COc1cccc(NC(=O)CN(C)C(=O)c2cc3c(s2)CCC(C)C3)c1 (centres undefined) 15.8 µM [inhibitor, partial curve, poor fit]
COC(=O)[C@@]12C[C@@H](CC(=O)N3CCN(C(=O)C4CC4)CC3)C(=O)N(Cc3cccc4ccccc34)C1=CCC(C)(C)C2 14.1 µM [inhibitor, single point]
C/C(=N\NC(=O)c1ccccc1O)c1cccs1 1.58 µM [inhibitor, partial curve, poor fit]
CCOC(=O)C1=NNC(C(=O)c2ccccc2)C1c1ccc(C)cc1 (centres undefined) 28.2 µM [inhibitor, single point]
Fc1ccccc1COc1ccc(Br)cc1CNCc1ccncc1 28.2 µM [inhibitor, single point]
O=C(O)c1cccc(-c2nc3ccccc3[nH]2)c1 1.26 µM [inhibitor, full curve, poor fit]
N#C/C(=C/c1ccc(Br)s1)C(=O)NCCc1c[nH]c2ccccc12 1.41 µM [inhibitor, full curve]
Clc1ccc(C2NCCc3sccc32)cc1 (centres undefined) 28.2 µM [inhibitor, single point]
O=C(NCC1CCCO1)c1ccc2c(c1)N(Cc1ccccc1)CCS2 (centres undefined) 28.2 µM [inhibitor, single point]

Potency, inactive:
O=C1C=C(OCCF)CC(c2ccccc2C(F)(F)F)O1 (centres undefined)
Cc1csc2nc(COc3ccc(NC(=O)c4ccccc4F)cc3)cc(=O)n12
COc1ccc(C(=O)Nc2nc(-c3ccc(Br)cc3)ns2)cc1
CCOCCc1nn2c(=O)cc(COC(=O)c3ccc(NC(=O)c4cccs4)cc3)nc2s1
O=C(NCCC(=O)N1CCN(c2ccccc2O)CC1)c1ccc(Cl)cc1
CCCn1c2ccccc2c2cnn(CC(=O)NCC3CCN(Cc4ccccc4C)CC3)c(=O)c21
CCCCC(CC)Cn1c(N)c(C#N)c2nc3ccccc3nc21 (centres undefined)
CCOC(=O)COc1ccc2c(c1)C(=O)CC(C)(C)O2
O=C(Nc1cccc(Br)c1)c1cc(S(=O)(=O)N2CCCCC2)c[nH]1
O=C(c1ccc2c(c1)N(Cc1ccccc1)C(=O)c1ccccc1S2(=O)=O)N1CCOCC1
COc1ccc(C(=O)N2CCN(C(=O)COc3ccccc3)CC2)cc1OC
CCOC(=O)N1CCC(=NNC(N)=O)C1
O=C(Nc1ccc2oc(-c3cccnc3)nc2c1)c1ccccc1F

Potency, active:
CC(C)(C)CC(C)(C)NCC(O)COc1c(F)cc(Br)cc1F (centres undefined) 10 µM
CCOC(=O)c1cccc(NC(=S)NCc2ccc(C)cc2)c1 7.94 µM

Activity change, negative = inhibition, inactive:
Cc1cc(C(=O)CCl)c(C)n1Cc1ccco1 -10.7% [at 0.307 µM]
